At least one peptide structure holds a part that was inferred or is arguable (an end, a ring closure or a residue). Some entries repeat one wording, which the source may state once for all of them. Square brackets hold non-standard residues; d marks the D form. Ends that are not written are not given here. Peptide text beside a SMILES is read from it. Phe(4-NH2) = Nc1ccc(C[C@H](N)C(=O)O)cc1
Key:
[1] = test system: purified rat peritoneal mast cells; assay type: cell-based; conditions: for Inhibitor (extent of inhibition of histamine secretion from mast cells): Table 9; for Inhibitor (extent of inhibition of histamine secretion from mast cells) / Inhibitor (degree of inhibition of histamine secretion from mast cells): incubation with different concentrations of each peptide, then induction of the allergic reaction; for effect on compound 48/80 induced histamine secretion: range of peptide concentrations tested; for Inhibitor (degree of inhibition of histamine secretion from mast cells): Table 1; for blocking effect on histamine secretion induced by compound 48/80: peptide up to 400 μg/ml (FIG. 3)
Experimental: 37° C. […] Each data point represents the average of duplicate measurements. The spontaneously released histamine was subtracted.
First, the effect of compound 48/80 on exocytosis from intact mast cells was determined. […] Histamine release was determined and is presented as the net secretion that is % of the total cellular histamine following subtraction of the spontaneously released histamine. Half-maximal release was obtained at 0.1 μg/ml while maximal release was obtained at 1-10 μg/ml. Accordingly, in order to analyze the potential of each peptide to block histamine secretion, histamine secretion was induced with 5 μg/ml compound 48/80, a concentration that induces a maximal histamine release, while the cells were incubated in the presence of increasing concentrations of each peptide.
In order to investigate the ability of these peptides to block allergen-induced exocytosis, the peptides were examined for their ability to block compound 48/80 induced histamine secretion from intact mast cells in vitro. Mast cells were incubated with different concentrations of each peptide, followed by induction of histamine secretion by compound 48/80.

[2] = test system: abdominal skin of C.R rats; assay: Rat skin test: intradermal injection of peptide, then intradermal compound 48/80 or vehicle, wheal area; assay type: in vivo
Experimental: The hair of the abdominal area of C.R rats was carefully removed with an electric clipper and a depilatory cream. In each animal the abdominal area was divided to six equal zones that were marked by pen. Each zone was either subjected to peptide treatment or served as a control. In the first set of experiments, the peptide was topically applied as follows: 36 μl of peptide solution at the indicated concentration (dissolved in 72% DMSO in saline) was applied on desired abdominal area. In the second set of experiments, the peptide was injected intradermally as follows: 20 μl of peptide solution at different concentrations (dissolved in 10% DMSO in saline) was injected intradermally to an indicated abdominal area using a 27-gauge sterile needle.
Skin tests were performed 0.5, 1 or 2 hours following application of the peptide. Skin tests were performed by injecting intradermally 20 μl of the allergen (0.1 mg/ml compound 48/80 dissolved in saline) or saline alone, into the center of each marked area on the abdominal skin using a 27-gauge sterile needle. The allergic response was monitored by outlining with a marker the wheals which developed in response to allergen or saline treatment.
To quantitate the skin test results, the marker signs were transferred onto paper with scotch tape. The areas of the wheals were outlined and calculated by a computerized planimeter (Hewlett-Packard), as previously described (Sussman et al., 1982).
Tables 10-16 presents the mean areas of the wheals, which developed in response to intradermal injection of each of the tested peptides, followed by either compound 48/80 or DDW injection applied after 0.5 or 1 hour. Two doses were tested for each peptide-20 and 200 μg (injection of 20 μl from a stock solution of 1 mg/ml or 10 mg/m respectively).
Skin tests on rats using compound 48/80 as the allergen assessed the ability of the peptides of the present invention to block allergic cutaneous reactions. The abdominal skin of the rats was subjected to peptide (indicated concentrations are listed in Tables 17A-17B below) or vehicle treatment (intradermal injection); the allergic response was induced by intradermal injection of compound 48/80 at various times; and the allergic response was quantified by calculating the area of the resultant allergic wheals.

[3] = test system: purified rat peritoneal mast cells; assay: Histamine secretion from intact mast cells incubated with peptide alone (secretagogue side effect); conditions: increasing concentrations

Molecule	Inhibitor (extent of inhibition of histamine secretion from mast cells) [1]	effect on compound 48/80 induced histamine secretion [1]	Inhibitor (degree of inhibition of histamine secretion from mast cells) [1]	other results
CC(C)C[C@H](NC(=O)CNC(=O)[C@H](CS)NC(=O)[C@H](CCC(=O)O)NC(=O)[C@H](CCCCN)NC(=O)[C@H](CC(C)C)NC(=O)[C@H](CC(N)=O)NC(=O)[C@H](CC(N)=O)NC(=O)[C@H](CCCCN)NC(=O)[C@@H]1CCCN1C(=O)[C@H](C)NC(=O)[C@H](CC(C)C)NC(=O)[C@H](CC(C)C)NC(=O)[C@H](C)NC(=O)[C@H](CC(C)C)NC(=O)[C@H](CC(C)C)NC(=O)[C@@H](NC(=O)[C@H](C)NC(=O)[C@@H]1CCCN1C(=O)[C@H](CC(C)C)NC(=O)[C@H](CC(C)C)NC(=O)[C@H](C)NC(=O)[C@@H](NC(=O)[C@H](C)NC(=O)[C@H](C)N)C(C)C)C(C)C)C(=O)N[C@@H](Cc1ccc(N)cc1)C(=O)O [WALL005] (H-AAVALLPAVLLALLAPKNNLKECGL[Phe(4-NH2)]-OH; N-terminus and C-terminus assumed)	− (− No inhibition)	had no effect		
AAVALLPAVLLALLAAKNNLKECGLY [WALL004]	− (− No inhibition)	failed to block histamine secretion		
AAVALLPAVLLALLAPKENLKDCGLF [Peptide 5]			++ (++ Moderate inhibitor (>70% inhibition))	maximal inhibition of histamine secretion ([1]; 0.1 μg/ml compound 48/80, 600 μg/ml peptide): 70%; inhibition of the maximal response (histamine secretion) ([1]; 5 μg/ml compound 48/80, peptide 800 μg/ml (FIG. 4)): up to 16%
AAVALLPAVLLALLAPKNNLKDCGLF [Peptide 5m]			− (− No inhibition)	
AAVALLPAVLLALLAPKNNLKESGLY [Peptide 25]			− (− No inhibition)	
AAVALLPAVLLALLAPKNNLKEVGLY [WALL007]	+++ (+++ Potent inhibitor (≧80% inhibition))			inhibition of compound 48/80 induced histamine secretion ([1]; 400 μg/ml peptide): potent inhibition; level of histamine secretion at maximal inhibition ([1]; 600 μg/ml peptide, compound 48/80 triggered): lower than the basal level of histamine secretion in control cells; Mean Wheal Area ± STD, Compound 48/80 ([2]; intradermal peptide 1 mg/ml, 0.5 hour before allergic induction): 116.2 ± 22.8 (n = 12) mm^2; Mean Wheal Area ± STD, Compound 48/80 ([2]; intradermal peptide 1 mg/ml, 1 hour before allergic induction): 86.7 ± 21.8 (n = 15) mm^2; Mean Wheal Area ± STD, Compound 48/80 ([2]; intradermal peptide 10 mg/ml, 0.5 hour before allergic induction): 99.0 ± 32.4 (n = 12) mm^2; Mean Wheal Area ± STD, Compound 48/80 ([2]; intradermal peptide 10 mg/ml, 1 hour before allergic induction): 95.4 ± 21.2 (n = 12) mm^2; reduction of compound 48/80 induced allergic reaction ([2]; intradermal peptide 0.5 or 1 hour before allergic induction): significant inhibition; block of compound 48/80 induced allergic reaction in vivo, rat skin (words) ([2]; intradermal peptide, dose and timing as in the sentence): effectively block the allergic response in vivo; basal level of histamine secretion compared to control cells [3]: inhibition of the basal level of histamine secretion
AAVALLPAVLLALLAPKQNLKECGLY [WALL006]	+ (+ Poor inhibitor (≦50% inhibition))			maximal inhibition of compound 48/80 induced histamine secretion ([1]; 600 μg/ml peptide, compound 48/80 concentration not given): 57%; basal level of histamine secretion compared to control cells [3]: inhibition of the basal level of histamine secretion
AAVALLPAVLLALLAPLKDCGLF [Peptide 21]		did not block histamine secretion	− (− No inhibition)	
AAVALLPAVLLALLAPLKECGLY [Peptide 20]		did not block histamine secretion	− (− No inhibition)	
AAVALLPAVLLALLAPYLGCEKLNNK [WALL023]	− (− No inhibition)	had no effect		
KAAVALLPAVLLALLAPKNNLKDCGLF [Peptide 12]			− (− No inhibition)	
KAAVALLPAVLLALLAPKNNLKECGLY [Peptide 13]			− (− No inhibition)	
VTVLALGALAGVGVGKENLKDCGLF [Peptide 4]				blocking effect on histamine secretion induced by compound 48/80 ([1]; 5 μg/ml compound 48/80): hardly any blocking effect
VTVLALGALAGVGVGKNNLKECGLY [Peptide 1]	− (− No inhibition)	did not inhibit histamine release		blocking effect on histamine secretion induced by compound 48/80 ([1]; 5 μg/ml compound 48/80): hardly any blocking effect

Source: US20070009544A1, “Anti-allergic complex molecules” (priority 1999, published 2007)
